Laboratory results reported in the supplement of paper PMC3334620.
In all, about 33,000 sequences were measured (“E-score (-0.5 to 0.5)”: median about -0.016, highest 2% from about 0.32 on). The list shows a part of the results.

Each sequence was assayed against T1, Stp1 (UniProt B3LFK1) (assay: PBM E-score (8-mer binding enrichment) (E-score (-0.5 to 0.5)); higher = stronger / more preferred TF binding; most listed sequences are background and not binding sites). Details: protein concentration: 200 nM; construct: GST-full length.
T1 sequence: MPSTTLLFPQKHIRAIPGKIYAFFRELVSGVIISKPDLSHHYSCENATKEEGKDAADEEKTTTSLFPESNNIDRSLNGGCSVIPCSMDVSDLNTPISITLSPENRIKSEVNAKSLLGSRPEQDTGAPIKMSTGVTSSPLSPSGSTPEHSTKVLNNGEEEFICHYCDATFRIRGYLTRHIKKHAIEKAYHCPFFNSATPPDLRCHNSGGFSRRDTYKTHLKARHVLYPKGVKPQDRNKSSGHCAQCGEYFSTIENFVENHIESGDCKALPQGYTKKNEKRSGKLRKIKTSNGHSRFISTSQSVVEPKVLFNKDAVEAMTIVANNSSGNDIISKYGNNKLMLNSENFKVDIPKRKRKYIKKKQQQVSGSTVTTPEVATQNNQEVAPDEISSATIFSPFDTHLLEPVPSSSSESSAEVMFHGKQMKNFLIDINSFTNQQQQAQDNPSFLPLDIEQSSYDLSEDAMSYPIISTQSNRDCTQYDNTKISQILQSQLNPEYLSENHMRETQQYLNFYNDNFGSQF
Description: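 Universal 'all 10-mer' protein binding microarrays (Agilent AMADID 015681) probed with GST-tagged S. cerevisiae TFs (full-length or DBD) made by in vitro transcription/translation (PURExpress), about 100-200 nM. Bound TF was detected with fluorescent anti-GST. Each ungapped 8-mer (which stands for itself and its reverse complement) is scored by the PBM enrichment score (E-score), a modified Wilcoxon-Mann-Whitney statistic from -0.5 to +0.5, computed with the Universal PBM Analysis Suite. Scale: above 0.35 generally sequence-specific binding.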

Sequence | PBM E-score
CGTGGTAA | -0.0899
CCACCTGG | -0.213
ATTTGTGC | 0.148
CAGATACC | -0.0896
AGCCGATC | -0.0437
CCTATCAG | -0.162
ATCAACGG | 0.195
AGTCAGAC | -0.0504
GAAAATGC | 0.0445
ACTGGTTG | 0.132
GCAATGCA | 0.0407
AGAGCCTG | -0.105
CAGACTGC | -0.123
GTGAATGA | 0.0753
ACTTTGGG | -0.149
AAGGTACG | 0.052
ATACTTGA | -0.0722
AGAGATAG | 0.0605
GCCGGGCA | -0.0462
AGACCGCG | 0.063
ACTCGTAG | -0.135
TCTAAGAA | 0.176
ACAATTAC | 0.0526
GCCAGCGC | -0.0384
AACCCCTA | -0.218

Sequence | PBM E-score
GAGGGCAC | -0.0254
CCATTACA | 0.193
CGGAGCCA | -0.135
ATTATAAG | 0.0354
GCTTAGGA | -0.228
ACGGCAAA | 0.45
AGCCCCCC | -0.372
CAATATCG | 0.0367
ACCCTTTA | 0.0773
GCATCTTA | 0.121
CTAACTGC | -0.0941
CGCAGAGC | 0.0296
ATGCCCCC | -0.178
AACCCCCC | -0.409
AAAAGCGA | 0.108
GTCCTTGA | -0.0108
ATCCCGCA | 0.0372
CCTATGCG | 0.0842
AACCGTCG | -0.0847
CATCGTGC | 0.252
CTCCGTGA | -0.177
ACCTACAG | 0.148
CCGAAAAC | -0.0451
AAGACTGA | -0.066
GAGACTAC | -0.355

Sequence | PBM E-score
ACATACAG | 0.0258
AATGGTAG | 0.0944
GACCACAA | -0.0827
GTCGCTGA | -0.0302
CCAATTAC | 0.0501
CATCAAGG | -0.267
GTACTAAC | 0.0799
AGCGATGG | -0.0868
AAATGCTG | -0.0665
AATTAAGC | 0.169
CCTGAGTA | -0.0425
CTTGGTGA | 0.0947
GAATAAGA | -0.0341
CTCAGTAA | -0.0393
CTGGCCGC | -0.0616
AAATTATA | 0.193
CATCTGGC | -0.0649
ATAAACTG | 0.101
CATAGCCC | -0.26
TAGAATAA | 0.144
CCGGAAGG | 0.0415
ACGTTGAG | -0.0343
AAGCCAAA | 0.0105
AACTATGC | 0.15
CTTTAACC | 0.0066

Sequence | PBM E-score
CACAGGCC | -0.219
GGGCACAC | -0.098
CTGGAATC | -0.00516
TCATTGAA | -0.0353
GAGCGGGA | 0.00431
CATTTCGA | 0.166
GGCCAATA | 0.0967
ACATCATC | 0.0243
CTGGGTGC | -0.25
AAACTATC | 0.00931
ATAAGCAC | 0.189
CATATAGG | -0.0961
TACTGACA | 0.0845
CTCTATAA | 0.0291
ACTGTGAT | -0.149
ACCGGCGA | 0.134
AAACCAGC | 0.0714
GAAGTGGA | -0.0297
TAGCGGCA | 0.291
GGGAGGAA | -0.186
CTCGTAGA | -0.125
AGCTTACA | 0.0627
CGATTCCG | -0.0394
GTCCCTTA | -0.0535
TGGTGCAA | -0.147

Sequence | PBM E-score
ATTGGCCA | -0.0253
GGAAAGCC | 0.0616
ATGAATGA | -0.0109
CCCATGAG | -0.332
GTGATCGA | -0.0266
CGGTCTTC | -0.159
GGAGTATA | 0.0122
CCGGACAA | 0.0207
AACGCGGC | 0.443
GACCTCCA | -0.0836
TCCGGCGA | 0.1
CTGACTAC | -0.147
ACTAAACG | 0.062
GTACGCCA | -0.175
ACCGTACA | 0.117
GAAGATGA | -0.16
GAGAGCTA | -0.111
AACGACGA | 0.159
ATAGGTGG | -0.109
ACTTAAGG | 0.0883
ACGGCGCT | 0.481
ACTCAACG | 0.0273
ATTGACCC | -0.104
CGCATCAA | 0.107
AAAATGGT | 0.139

Sequence | PBM E-score
AAGATCTG | 0.105
CTCCCAAA | -0.0217
AAACAAAC | 0.124
AACAAGGG | -0.122
ATATTTCA | 0.101
ACCCCAAA | -0.0783
CCTAAATA | -0.0206
AGCACCTC | -0.238
CATTCCGA | 0.123
CTGATAGC | -0.084
GGCTCATA | 0.0977
TACGACGA | 0.0149
GGGGCCCA | -0.298
CAAATCAG | 0.115
AGCAGTCA | -0.272
CCGAAATA | 0.0974
CCTGTTTC | -0.152
ATTGAAAG | 0.025
CGCCACAG | -0.0135
TTATAGAA | 0.218
AGGCCCAA | 0.0132
AAATACCG | 0.095
AAGAGCTG | 0.00257
CACGTCCC | -0.196
AGGTTGAA | 0.00415

Sequence | PBM E-score
TGTAGGAA | 0.0767
ACATCCCT | -0.172
ATGTCCTA | -0.124
TATCGGGA | -0.0286
AGTTAGTG | -0.0796
AAATAGAT | 0.0937
TGCCAACA | -0.0516
TATCCATA | -0.0071
GCCGCATA | 0.457
CCTGCAGC | -0.209
CCGTTACA | 0.0835
AAACCGTG | -0.0289
ACTTTTGG | -0.0182
CTGCGCAC | -0.0533
AAGGCCAT | 0.0825
GTGGGGAA | -0.0367
CCTCTTGA | 0.027
GGCCTGTA | -0.183
AGAACCAC | -0.24
ACGATCGT | -0.0636
GTGTGTAA | 0.0522
ATCATGCA | -0.107
